Laboratory results as given in PubChem BioAssay AID493208 (National Center for Advancing Translational Sciences (NCATS), 2011).
The whole screen tested about 44,000 compounds, of which about 340 (0.77%) were called active. Inconclusive results (about 5%) are left out. Calls come from the whole dose curve; as a rule, active = well fitted inhibition curve with a large enough effect; inconclusive = small, poorly fitted or top-dose-only effect; inactive = flat fitted curve, though single readings scatter. The list shows a part of the results.

assay: Acumen qHTS Assay for Inhibitors of the mTORC1 Signaling Pathway in MEF (Tsc2-/-, p53-/-) Cells: Sytravon; details: phospho-rpS6 immunofluorescence/PI, 24 h; series mostly up to 38.3 µM; activity change, negative = inhibition: at the top concentration;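 note: plate controls were DMSO for no effect and rapamycin for full effect; nearly all actives have a fitted effect of over 50% in size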
Method in brief: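 Immunofluorescence of rpS6 phosphorylation in Tsc2-/-, p53-/- MEFs after 24 h compound exposure, normalized to propidium iodide signal. Activity is expressed as % positive cells, thresholded with 7.5 nM rapamycin.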

Activity change, negative = inhibition, inactive:
Cc1ccc(OCC(=O)Nc2ccc3nc(SCc4ccccc4)sc3c2)cc1 -1.95%
CCc1cc2c(cc3c(=O)n(CCCC(=O)NCc4ccccc4Cl)nc(CC)n32)s1 -9.19%
Cc1cccc(OCc2ccc(-c3nc(C#N)c(N4CCC(C(N)=O)CC4)o3)o2)c1 -4.79%
CCOC(=O)c1cccc(NC(=O)Cn2c(=O)nc(-c3ccccc3)c3ccccc32)c1 0%
O=C(Nc1cc(C(F)(F)F)ccc1Cl)c1cc(S(=O)(=O)NCc2ccccc2)ccc1F -10.4%
CCOC(=O)c1cccc(NC(=O)CC2C(=O)N(c3ccc(F)cc3)C(=O)N2C(C)C)c1 (stereo not given) -2.12%
COCCCNC(=O)CC(c1cc(OC)c(OC)c(OC)c1)N1Cc2ccccc2C1=O (stereo not given) -2.44%
COc1ccc(NC(=O)C(Cc2ccccc2)NS(=O)(=O)c2ccc(Br)s2)cc1OC (stereo not given) -18.2%
CCOC(=O)c1c(C)[nH]c(C)c1S(=O)(=O)NCC(=O)Nc1cc(Cl)ccc1OC 3.89%
CC(=O)c1ccc(NC(=O)COc2ccccc2-c2nc(C(C)C)no2)cc1 -3.2%
CCOC(=O)C1CCN(S(=O)(=O)c2cc(-c3cc(C)no3)ccc2OC)CC1 0%
O=C(COc1ccccc1)Nc1nnc2n1CCS2 7.52%
Cc1ccc(NC(=O)C(Cc2ccccc2)NS(=O)(=O)c2ccc3c(c2)oc(=O)n3C)cc1C (stereo not given) -10.2%
CC(C)(C)C(=O)Cn1c(=O)n(CCCCCC(=O)NCc2ccccc2Cl)c(=O)c2sccc21 1.74%
COc1cc(OC)cc(-c2nc3nc(C)c(CCC(=O)Nc4ccccc4)c(C)n3n2)c1 2.09%
CC(=O)c1ccc(N2CCN(C(=O)Nc3cn(CC(C)C)c(=O)c4ccccc34)CC2)cc1 0.638%
Cc1ccc(C)c(NC(=O)CSc2nnc(NC(=O)Nc3ccccc3)s2)c1 0.166%
O=C(CSc1nc(-c2ccco2)nc2cc(=O)[nH]n12)Nc1ccc(F)cc1 -3.6%
COc1ccc(C2CC(=O)Nc3cc4c(cc32)OCO4)c(OC)c1 (stereo not given) -20.7%
CCN1CCN(Cc2nc3cc(NC(=O)c4cccc([N+](=O)[O-])c4)ccc3n2CC)CC1 -0.298%
CCc1ccc(NC(=O)Cn2c(C(=O)OC)cc3oc(C)cc32)cc1 -0.441%
CCOC(=O)N1CCC(NC(=O)c2ccc3c(c2)N(Cc2ccc(F)cc2)C(=O)c2ccccc2S3=O)CC1 (stereo not given) -1.33%
COc1ccc(CCNC(=O)c2nc(SCc3ccc(F)cc3)ncc2Cl)cc1OC -1.03%
CCc1ccc(C2CC(=O)c3c([nH]c(C(=O)OC4CCCCCC4)c3C)C2)cc1 (stereo not given) -19.5%
COc1ccc(NC(=O)CN2CCN(C3CCCCC3)C(=O)C2=O)cc1 19.8%
Cc1ccc(CCNC(=O)C(C)n2nc(C)c3c(C)n(-c4ccc(C)cc4)nc3c2=O)cc1 (stereo not given) -22.1%
CCCCCCC(=O)Nc1cc2nc3c(nc2cc1C)c(=O)n(C)c(=O)n3C 0.754%
CCOC(=O)c1c(-c2ccc(Br)cc2)csc1NC(=O)c1ccc(C(C)(C)C)cc1 2.24%
COc1ccc(CNC(=O)C2CCCN(C(=O)c3cnn(-c4ccc(F)cc4)c3-n3cccc3)C2)cc1 (stereo not given) -1.9%
CC1CCCCN1Cc1c(O)ccc2c(=O)c(-c3ccc(Cl)cc3)coc12 (stereo not given) -1.64%
Cc1ccc(CNC(=O)c2cc(=O)c3cc(C)c(C)cc3o2)cc1 -2.99%
CCOc1ccc(CC(=O)NCCc2sc(-c3cccc(F)c3)nc2C)cc1 -9.35%
O=C(NCCS(=O)(=O)N1CCN(c2ccc(F)cc2)CC1)c1ccccc1Br -2.83%
CCOc1cccc2sc(NC(=O)c3ccc(S(=O)(=O)N4CCCCC4)cc3)nc12 11.2%
COc1ccc(NC(=O)c2cc(=O)c3cc(C)cc(C)c3o2)cc1 4.18%
CC(CNc1nc2ccccc2c2nc(-c3ccccc3)nn12)c1ccccc1 (stereo not given) -2.87%
CC(=O)Nc1cccc(NC(=O)CSc2cn(CC(=O)N3CCCC3)c3ccccc23)c1 0.203%
COc1ccc(NC(=O)c2cc3c(=O)n(C)c4cc(Cl)ccc4c3s2)cc1Cl 0.441%
CC1CCN(S(=O)(=O)c2ccc3c(ccc(=O)n3CC(=O)NCc3ccccc3)c2)CC1 -4.26%
CCCS(=O)(=O)c1nc(S(=O)(=O)c2ccc(C)cc2)c(NCC(C)C)s1 -0.318%
Cc1ccc(CCNC(=O)c2oc(=O)c3ccccc3c2-c2ccc(C)cc2)cc1 -0.205%
CCC(=O)Nc1ccc(C)cc1-c1nc2ccccc2n(CC(=O)c2ccc(C)cc2)c1=O -0.098%
CC(C)(C)OC(=O)N1CCC(c2c(C(=O)NCc3ccco3)cnn2-c2ccc(F)cc2F)CC1 -12.6%
Cc1noc2ncnc(N3CCCC(C(=O)Nc4cc(F)ccc4F)C3)c12 (stereo not given) -21.1%
CCCCNC(=O)Cn1c(=O)cc(C)c2c(C)nn(-c3cccc(Cl)c3C)c21 -2.96%
CCc1ccc(-n2c(=O)c3c(C)c(C(=O)N(C)C)sc3n(CC(=O)Nc3cc(Cl)ccc3C)c2=O)cc1 -5.57%
CCOC(=O)c1c(C)c(C(=O)NCc2ccc(Cl)cc2)c(C)n1C -0.852%
CCc1c(C)sc2c1CCN(C(=O)Nc1ccccc1Cl)C2c1ccc(OC)cc1 (stereo not given) -1.34%
Cc1ccc(-c2noc(-c3ccc(NC4CCCC4)c([N+](=O)[O-])c3)n2)cc1 6.56%
Cc1cc(-n2c(SCc3ccccc3F)nc3[nH]ncc3c2=O)ccc1Cl 0.754%
CC(C)(C)OC(=O)N1CCC(c2nnc(SCc3ccccc3Cl)o2)CC1 -6.38%
CS(=O)(=O)c1ncc(N(Cc2ccco2)Cc2cccs2)c(C(=O)Nc2ccccc2F)n1 -1.65%
COc1ccc(Cl)cc1NC(=O)C(C)n1c(=O)cc(C(F)(F)F)c2c(C)nn(C)c21 (stereo not given) -8.73%
Cc1ccc(Cn2ccn(Cc3ccc(C)cc3)c(=O)c2=O)cc1 0%
CC1CCc2onc(C(=O)N3CCN(c4ccc(Cl)cc4)CC3)c2C1 (stereo not given) -2.89%
CCOc1ccc(CNC(=O)CCCn2nc(C)c3c(C)n(-c4ccc(C)cc4)nc3c2=O)cc1 -2.08%
COc1ccc(N2C(=O)NC(NS(=O)(=O)c3ccc(NC(C)=O)cc3)(C(F)(F)F)C2=O)cc1 (stereo not given) -2.92%
CCc1ccc(NC(=O)Cn2cnc3nc4c(cc3c2=O)CCCC4)cc1 -1.42%
Cc1ccc(C(=O)N2CC(=O)Nc3ccc(Br)cc3C2c2ccc(F)cc2)cc1C (stereo not given) 1.72%
COc1ccc(CNC(=O)Cc2c(C)c3c(O)cc(C)cc3oc2=O)cc1 -6.13%
